{
  "source": "the RNAGym collection of RNA variant scans (doi:10.1073/pnas.2313332121)",
  "parents": {"B1": {"name": "TPR 5TU (parent)", "chain": "GGAUCUUCUCGAUCUAACAAAAAAGACAAAUCUGCCACAAAGCUUGAGAGCAUCUUCGGAUGCAGAGGCGGCAGCCUUCGGUGGCGCGAUAGCGCCAACGUUCUCAACUAUGACACGCAAAACGCGUGCUCCGUUGAAUGGAGUUUAUCAUG"}},
  "note": "Variants at the background level are over-represented here.",
  "data": [
    {"variants_of": "B1", "test": "polymerase ribozyme fitness, log enrichment relative to wild type (log ratio); higher = more active; in vitro selection for triplet polymerase activity", "how_it_was_run": "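A heterodimeric triplet polymerase ribozyme had each of its subunits mutagenized by PCR into a library, which was transcribed. One round of in vitro selection, done in triplicate, annealed each library with a biotinylated primer, its partner subunit and triplets, then incubated it frozen at −7 °C before gel excision of extended constructs, streptavidin-bead capture and RT-PCR. Fitness is the logarithm of genotype enrichment relative to wild-type enrichment, based on Illumina sequencing of inputs and outputs and inverse-variance-weighted replicate averages. A base-2 logarithm is used, and genotypes were kept only with ≥10 input reads and ≥1 read per output.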", "values": [
      {"variant": "GGAUCUUCUCGAUCUAACAAAAAGGACAAAUCUGCCACAAAGCUUGAGAGCAUCUUCGGAUGCAGAGGCGGCAGCCUUCGGUGGCGCGAUAGCGCCAACGUUCUCAACUAUGACACGCAAAACGCGUGCUCCGUUGAAUGGAGUAUAUCAUG", "note": "[A24G U145A]", "polymerase ribozyme fitness (log ratio)": -3.78},
      {"variant": "GGAUCUUCUCGAUCUAACAAAAAUGUCAACUCUGCCACAAAGCUUGAGAGCAUCUUCGGAAGCAGAGGCGGCAGCCUUCGGUGGCGCGAUAGCGCCAACGUUCUCAACUAUGACACGCAAAACGCGUGCUCCGUUGAAUGGAGUUUAUCAUG", "note": "[A24U A26U A30C U61A]", "polymerase ribozyme fitness (log ratio)": "≤ -4.2"},
      {"variant": "GGAUCUUCUCGAUCUAACAAAAAUGACAUAUCUGCCACAAAGCUUGAGAGGAUCUUCGGAUGCAGAGGCGGCAGCCUUCGGUGGCACGAUAGCGCCAUCGUUCUCAACUAUGACACGCAAAACGCGUGCUCCGUUUAAUGGAGUUUAUCAUG", "note": "[A24U A29U C51G G86A A98U G136U]", "polymerase ribozyme fitness (log ratio)": "≤ -4.2"},
      {"variant": "GGAUCUUCUCGAUCUAACAAAAAGGACAAAUCUGCCACAAAACUUGAGAGCAUCUUCGGAUGCAGACGCGGCAGCCUUCUGUGGCGCGAUAGGGCCAACGUUCUCAACUAUGAAACGCAAAACGCGUGCUCCGUUGAAUGGAGUUUAUCAUG", "note": "[A24G G42A G67C G80U C93G C114A]", "polymerase ribozyme fitness (log ratio)": "≤ -4.2"},
      {"variant": "GGAUCUUCUCGAUCUAACAAAAAUGACUAAUCUGCCACAAAGCUUGAGAGCAUCUUCGGAUGCAGAGGCAGCAGCCUUCGCUGGAGCGAUAGCGCGAACGUUCUCAACUAUGACACGCAAAACUCGUGCUCCGUUGAAUGGAGUUUAUCAUG", "note": "[A24U A28U G70A G81C C85A C96G G124U]", "polymerase ribozyme fitness (log ratio)": "≤ -4.2"},
      {"variant": "GGAUCUUCUCGAUCUAACAAAAAUGACGUAUCUGCCACAAAGCUUGAGAGCAUCUUCGGAUGCAGAGGCGGCAGCCUUCGGUGGCGCGAUAGGGCCAACGUUCUCAACUAUGAUACGCAAAACGCGUGCUCCGUUGAAUGGAGUUUAUCAUG", "note": "[A24U A28G A29U C93G C114U]", "polymerase ribozyme fitness (log ratio)": "≤ -4.2"},
      {"variant": "GGAUCUUCUCGAUCUAACAAAAAGGACAAAUCUGCCACAAAGCUUGAGAGCAUCUUCGGAUGCAGAGGCGGCAGCCUUCGGUUGCGCGAUAGCGCCAACGUUCUCAACUAUGACACGCAAAACGCGUGCUCCGUUGAAUGGAGUUUAUCAUG", "note": "[A24G G83U]", "polymerase ribozyme fitness (log ratio)": -3.03},
      {"variant": "GGAUCUUCUCGAUCUAACAAAAAGGACAAAUCUGCCACAAAGCUUGAGAGCAUCUUCGGAUGCAGAGGCGGCAGCCUUCGGUGGCGCGAUAACGCCAACGUUCUCAACUAUGACACGCAAUACGCGUGCUCCGUUGAAUGGAGUUUGUCAUG", "note": "[A24G G92A A121U A147G]", "polymerase ribozyme fitness (log ratio)": "≤ -4.2"},
      {"variant": "GGAUCUUCUCGAUCUAACAAAAAGGACAAAUCUGCCACAAAGCUUGAGAGCAUCAUCGGAUGCAGAGGCGGCAGCCUUCGGUGGCGCGAUAGCGCCAACGUUCUCAACUAUGACACGCAAACCGCGUGCUCCGAUGAAUGGAGUUUAUCAUG", "note": "[A24G U55A A122C U134A]", "polymerase ribozyme fitness (log ratio)": "≤ -4.2"},
      {"variant": "GGAUCUUCUCGAUCUAACAAAAAGGACAAAUCUGCCACAAAGCUUGAGAGCAUCUUCGGAUGCAGAGGCGGCAGCCUUCGGUGGCGCGAUAUCGCCAACGUUCUCAACUAUGACACGCAAAGCGCGUGCUCCGUUGAAUGGAGUUUAUCAUG", "note": "[A24G G92U A122G]", "polymerase ribozyme fitness (log ratio)": "≤ -4.2"},
      {"variant": "GGAUCUUCUCGAUCUAACAAAAAUGCCAAAUCUGGCACAAAGUUUGAGAGCAUCUUCGGAUGCAGAGGCGGCAGCCUUCGGUGGCGCGAUAGCGCCAACGUUCUCAACUAUGACACGCAAAACGCGUGCUCCGUUGAAUGGAGUUGAUCUUG", "note": "[A24U A26C C35G C43U U146G A150U]", "polymerase ribozyme fitness (log ratio)": "≤ -4.2"},
      {"variant": "GGAUCUUCUCGAUCUAACAAAAAUGACACAUCUGCCACAAAGCUUGAGAGCAUCUUCGGAUGCAGAGGCGGCGGCCUUCGGUGGCUCGCUAGCGCCAACGUUCUCAACUAUGACACGCAAAACGCGUGCUCCGUUGAAUUGAGUUUAUCGUG", "note": "[A24U A29C A73G G86U A89C G140U A150G]", "polymerase ribozyme fitness (log ratio)": "≤ -4.2"},
      {"variant": "GGAUCUUCUCGAUCUAACAAAAAGGACAAAUCUGCCACAAAGCUUCUGAGCAUCUUCGCAUGCAGAGGCGGCAGCCUUCGGUGGCGCGAUUGCGCCAACGUUCUCAACUAUGACACGCAAAAGGCGUGCUCCGUUGAAUCGAGUUAAUCAUG", "note": "[A24G G46C A47U G59C A91U C123G G140C U146A]", "polymerase ribozyme fitness (log ratio)": "≤ -4.2"},
      {"variant": "GGAUCUUCUCGAUCUAACAAAAAUGUCAAAUCUGCCACAAAGCUUGACAGCAUCUUCGGAUGCAGAGGCGGCAGCCUUCGGUAGCGCGAUAGCGCCAACGUUCUCAACUAUGACUUGCAAAACGCGUGCUCCGUUGAAUGGAGUUUAUCAUG", "note": "[A24U A26U G48C G83A A115U C116U]", "polymerase ribozyme fitness (log ratio)": "≤ -4.2"},
      {"variant": "GGAUCUUCUCGAUCUAACAAAAAUGUCAAAUGUGCCACAAAGCUUGAGAGCAUCUUCGGAUGCAGAGGCGGCAGCCGUCGGAGGAGCGAUAGCGCCAACGUUCUCAACUAUGACACGUAUAACGCGUGCUCCGUUGAAUGGAGUUUAUCAUG", "note": "[A24U A26U C32G U77G U82A C85A C118U A120U]", "polymerase ribozyme fitness (log ratio)": "≤ -4.2"},
      {"variant": "GGAUCUUCUCGAUCUAACAAAAAGGACAAAUCUGCCACAAAGCUUGAGAGCAUCUUCGGAUGCAGAGGCGGCAGCCUUCGGUGUCGCGAUAGCGCCAACGUUCUCAACUAUGACACGCAAAACGCGUGCUCCGUUGAAUGGAGUUUAUCAUG", "note": "[A24G G84U]", "polymerase ribozyme fitness (log ratio)": "≤ -4.2"},
      {"variant": "GGAUCUUCUCGAUCUAACAAAAAGGACAAAUCUGCCACAAAGCUAGAGAGCAUCUUCGCAUGCAGAGGCGGCAGCGUUCGGUGCCGCGAUGGCGACAACGUUCUCAACUAUGACACGCAAAACGAGUGCUCCGUUGAAUGGAGUUUAUCAUG", "note": "[A24G U45A G59C C76G G84C A91G C95A C125A]", "polymerase ribozyme fitness (log ratio)": "≤ -4.2"},
      {"variant": "GGAUCUUCUCGAUCUAACAAAAAGGACAAAUCUGCCACAAAGCUUGAGAGCAUCUUCGGAUGCAGAGGCGGCAGCCUUCGGUGGCGCGAUAGCGCCAACGUUCUCAACUAUGACACGCAAAACGCGUGCUCCGUUGAAUGCACUUUAUCAUG", "note": "[A24G G141C G143C]", "polymerase ribozyme fitness (log ratio)": "≤ -4.2"},
      {"variant": "GGAUCUUCUCGAUCUAACAAAAAUGUCAAAUCUGCCACAAAGCCUGAGAGCAUCUUCGGAUGCAGAGGCGGCAGCCUUCGGUGGCGCGAUAGCGCCAACGUUCUCAACUAUGACACGCAAAACGCGUGCUCCGUUGAAUGGAGUUUAUCAUG", "note": "[A24U A26U U44C]", "polymerase ribozyme fitness (log ratio)": "≤ -4.2"}
    ]}
  ]
}
